Some test systems named below: SK-OV-3 ovarian; CAKI-1 renal; SK-MEL-2 melanoma; NCI-H460 lung; HCT-116 colon; NCI/ADR-RES ovarian; DMS 273 small cell lung; NCI-H226 lung; MALME-3M melanoma; HOP-92 NSCLC; OVCAR-4 ovarian; HL-60(TB) leukemia; UACC-62 melanoma; OVCAR-3 ovarian; SNB-75 CNS; LOX IMVI melanoma; SNB-19 CNS; MDA-MB-435; OVCAR-8 ovarian; SF-268 CNS; UACC-257 melanoma; KM12 colon; HT29 colon; UO-31 renal; M14 melanoma; U251 CNS; NCI-H23 lung; SK-MEL-28 melanoma; CCRF-CEM leukemia; HCT-15 colon; A498 renal; T-47D breast; K-562 leukemia.

What all share (experiment): growth of human tumour cells (NCI), 48 h

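These data come from cells grown in 96-well plates and exposed to compound for 48 hours at five concentrations. GI50: concentration for 50% inhibition of growth.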 Some entries of the source have several records that differ or are many. They are shown here; other results are not. There may be further records. Records of one sample usually come from different ranges of test concentrations, not given here; a value can be the end of its range.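 The concentration for full growth arrest is given as TGI.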 What stands in brackets tells the records apart. A, B and so on number the origins entry by entry.

For `COc1cc2c(c(OC)c1OC)-c1ccc(OC)c(=O)cc1[C@@H](NC(C)=O)CC2`, the TGI with SK-OV-3 ovarian was 5.06 µM, 27 µM [sample A] and > 100 µM [sample B] and > 100 µM [sample C]; in the assay with CAKI-1 renal, 35.1 µM, 145 nM [sample A] and > 100 µM [sample B] and > 100 µM [sample C]; in the assay on SK-MEL-2 melanoma it was 6.25 nM [sample A, 1 test] and 52 µM [sample A, mean of 4 tests] and 506 nM [sample A, mean of 5 tests] and > 100 µM [sample B, mean of 2 tests]; in the assay with NCI-H460 lung, 1.37 µM, 6.25 µM [sample A] and 6.56 µM [sample B] and > 100 µM [sample C]; in the assay with HCT-116 colon, 18 µM, > 242 µM [sample A] and > 100 µM [sample B]; in the assay on NCI/ADR-RES ovarian it was 5.31 µM, 2.59 µM [sample A] and 4.51 µM [sample B] and > 31.2 µM [sample C]. The TGI was 6.25 nM [1 test] and > 625 µM [mean of 2 tests] in the assay on DMS 273 small cell lung; 1.35 µM [sample A, mean of 3 tests] and 4.52 µM [sample A, mean of 5 tests] and > 100 µM [sample B, 1 test] with NCI-H226 lung; 6.25 nM, > 87.3 µM, > 459 µM [sample A] and > 100 µM [sample B] and > 100 µM [sample C] in the assay with MALME-3M melanoma. Moreover, the GI50 with DMS 273 small cell lung is 4.6 nM [1 test] and 62.5 nM [mean of 2 tests].

For the compound `O=C1NC2C(=CC(O)C(O)C2O)c2cc3c(cc21)OCO3` (stereo unspecified), the TGI was 805 nM, 2.41 µM, 10.6 µM in the assay on HOP-92 NSCLC; 30.6 µM [1 test] and 2.28 µM [mean of 2 tests] in the assay on OVCAR-4 ovarian. In addition, the GI50 with HL-60(TB) leukemia was 2.63 nM [1 test] and 78.3 nM [mean of 3 tests].

Take `CO[C@H]1C[C@H](O[C@H]2CC[C@]3(C=O)[C@H]4CC[C@]5(C)[C@@H](C6=CC(=O)OC6)CC[C@]5(O)[C@@H]4CC[C@]3(O)C2)O[C@H](C)[C@H]1O[C@@H]1O[C@H](CO)[C@@H](O)[C@H](O)[C@H]1O`: the TGI in the assay with UACC-62 melanoma was 0.141 nM and 17.7 nM; in the assay with OVCAR-3 ovarian, 0.135 nM and 12.7 nM; with SNB-75 CNS, 0.113 nM and > 100 µM; in the assay on CAKI-1 renal, 0.0425 nM and 11.4 nM; in the assay with LOX IMVI melanoma, 0.0721 nM and 19.4 nM; with SNB-19 CNS it was 0.274 nM and 30.7 nM. Moreover, the TGI in the assay on MDA-MB-435 was 0.0823 nM and 25.1 nM; in the assay with NCI/ADR-RES ovarian it was 0.0573 nM and > 100 µM; with OVCAR-8 ovarian, 0.0766 nM and 22 nM; in the assay on NCI-H226 lung, 0.204 nM and 18.1 nM; with SF-268 CNS, 0.0434 nM and 18.6 nM; with UACC-257 melanoma, 2.5 nM and 26.9 nM. The TGI in the assay with KM12 colon is 0.316 nM and 490 nM; in the assay on HT29 colon it was 0.0785 nM and 101 nM; with UO-31 renal it was 0.0673 nM and 87.5 nM; in the assay on M14 melanoma, 0.0836 nM and 33.4 nM; in the assay with U251 CNS, 0.106 nM and > 100 µM.

Take `N#Cc1c(N)n2c(nc1=Nc1ccc(Cl)cc1)sc1cc(Cl)ccc12`: the GI50 was 1.82 µM and > 100 µM in the assay with HOP-92 NSCLC; 6.16 µM and > 100 µM with HL-60(TB) leukemia; 1.89 µM and > 100 µM in the assay with UO-31 renal. Further, the TGI with HOP-92 NSCLC was 5.05 µM and > 100 µM; in the assay on UO-31 renal, 6.73 µM and > 100 µM.

Regarding `COc1ccc2c(c1)[nH]c(=O)c1c3ccccc3cn21`, the GI50 was 42.2 nM and 440 nM in the assay with NCI-H23 lung; 38.8 nM and 5.14 µM in the assay on SK-OV-3 ovarian; 27.5 nM [1 test] and 6.4 µM [mean of 2 tests] with SNB-75 CNS; 52.9 nM and 1.24 µM in the assay with SK-MEL-28 melanoma; 90.9 nM [1 test] and 6.39 µM [mean of 2 tests] with OVCAR-4 ovarian; 158 nM and 1.92 µM in the assay on SK-MEL-2 melanoma. For the same compound, the GI50 in the assay on NCI-H226 lung was 45.3 nM [1 test] and 974 nM [mean of 2 tests]; in the assay on T-47D breast it was 48.3 nM and 38.2 µM. Besides, the TGI in the assay with SK-OV-3 ovarian is 1.63 µM and > 100 µM; in the assay with SNB-75 CNS it was 83.9 nM [1 test] and 15.3 µM [mean of 2 tests]; in the assay with SK-MEL-28 melanoma, 2.54 µM and 27.1 µM; with OVCAR-4 ovarian, 5.09 µM [1 test] and > 51.3 µM [mean of 2 tests]; in the assay with CCRF-CEM leukemia it was 1.44 µM [1 test] and 77.6 nM [mean of 2 tests]; with HCT-15 colon, 1.14 µM [1 test] and 27 µM [mean of 2 tests]. Also, the TGI in the assay on A498 renal is 1.36 µM [1 test] and 16.1 µM [mean of 2 tests]; with NCI-H226 lung, 522 nM [1 test] and 18.4 µM [mean of 2 tests]; in the assay with SF-268 CNS, 2.98 µM [1 test] and 210 nM [mean of 2 tests]; in the assay with KM12 colon, 1.5 µM [1 test] and > 31.2 µM [mean of 2 tests]; in the assay on T-47D breast it was 4.6 µM and > 100 µM; in the assay with HT29 colon it was 1.48 µM and > 100 µM. Further, the TGI with K-562 leukemia is 1.02 µM and 15.9 µM.

Values taken from PubChem BioAssay (NCI).
